Assay results: paper PMC6010280
Results are given in words; binding and its absence hold for the method and conditions named. For part of these data: Binding seen in cells or lysates may run through a third protein. Some entries that bind do so weakly or less than the wild type. Tags and fused reporters may be left off the sequences shown. Each block holds one molecule with its values, some of them ahead of it.

Amino acid sequences for entries named in this document (tags omitted). A change or cut given only in a name is not applied to a line headed by its entry. Chains listed by the source or under a name are the forms on record and can include a tag or linker.
HA-MATα2 (P18298, form named): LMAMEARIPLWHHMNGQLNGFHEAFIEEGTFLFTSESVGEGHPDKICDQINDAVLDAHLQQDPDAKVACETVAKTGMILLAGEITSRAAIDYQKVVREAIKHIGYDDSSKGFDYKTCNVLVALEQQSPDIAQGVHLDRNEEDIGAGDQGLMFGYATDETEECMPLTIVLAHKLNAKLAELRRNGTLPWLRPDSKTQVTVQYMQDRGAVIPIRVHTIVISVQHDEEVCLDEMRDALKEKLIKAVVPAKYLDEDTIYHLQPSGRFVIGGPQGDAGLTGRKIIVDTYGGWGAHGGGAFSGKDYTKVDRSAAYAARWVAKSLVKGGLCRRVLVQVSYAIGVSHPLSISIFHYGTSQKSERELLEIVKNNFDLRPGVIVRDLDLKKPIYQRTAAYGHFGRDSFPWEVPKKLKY
HA-MATα1 (P13444, form named): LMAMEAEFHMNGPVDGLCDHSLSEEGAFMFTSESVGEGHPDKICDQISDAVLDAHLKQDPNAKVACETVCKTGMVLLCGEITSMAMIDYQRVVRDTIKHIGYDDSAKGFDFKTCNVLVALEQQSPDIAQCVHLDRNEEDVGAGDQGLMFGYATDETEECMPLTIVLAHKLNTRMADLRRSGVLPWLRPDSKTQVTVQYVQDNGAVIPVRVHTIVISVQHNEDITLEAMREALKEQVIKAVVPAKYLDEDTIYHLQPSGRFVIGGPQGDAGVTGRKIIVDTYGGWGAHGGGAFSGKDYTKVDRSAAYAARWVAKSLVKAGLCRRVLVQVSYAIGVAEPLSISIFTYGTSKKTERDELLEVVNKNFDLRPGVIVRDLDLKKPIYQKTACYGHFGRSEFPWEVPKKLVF
HA-HMGB1 (high mobility group protein B1) (P63159, form named): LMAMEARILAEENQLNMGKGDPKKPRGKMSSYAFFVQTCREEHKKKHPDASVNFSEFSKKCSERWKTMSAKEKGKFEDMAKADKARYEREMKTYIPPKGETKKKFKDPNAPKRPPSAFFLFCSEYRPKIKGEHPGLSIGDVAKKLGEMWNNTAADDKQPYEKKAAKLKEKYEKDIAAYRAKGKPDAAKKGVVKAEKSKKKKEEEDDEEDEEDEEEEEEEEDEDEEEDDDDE

Assays:
[1] = biological target: T1, FLAG-BHMT (R. norvegicus) (UniProt O09171); assay: co-IP; Cos7 cells cotransfected with pFLAG-BHMT and pHA-prey (1:1), lysates 48 h after transfection; anti-FLAG M2 agarose overnight at 4°C; anti-HA immunoblot; 50 mM Tris/HCl pH 7.5, 150 mM NaCl, 1 mM EDTA, 1% NP-40, 1 mM DTT
T1 sequence: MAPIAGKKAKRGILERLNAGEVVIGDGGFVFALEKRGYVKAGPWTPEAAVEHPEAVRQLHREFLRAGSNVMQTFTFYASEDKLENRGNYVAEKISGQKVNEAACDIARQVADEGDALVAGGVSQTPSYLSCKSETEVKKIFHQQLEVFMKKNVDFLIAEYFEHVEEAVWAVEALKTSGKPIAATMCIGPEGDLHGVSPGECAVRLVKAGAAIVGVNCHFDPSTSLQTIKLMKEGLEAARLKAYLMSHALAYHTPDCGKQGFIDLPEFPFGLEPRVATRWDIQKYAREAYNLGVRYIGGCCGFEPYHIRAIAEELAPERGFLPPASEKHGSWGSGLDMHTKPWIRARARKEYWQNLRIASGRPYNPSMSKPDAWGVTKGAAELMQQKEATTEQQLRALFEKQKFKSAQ

[2] = biological target: BHMT, yeast two-hybrid fusion (pGBKT7-BHMT) (rat) (UniProt O09171); assay: two-hybrid; pGBKT7-BHMT bait against a rat liver Matchmaker cDNA library in yeast AH109; growth on -Ade/-His/-Leu/-Trp SC medium; verified by cotransformation
[3] = biological target: T2, HA-ALDOB (aldolase B) (rat) (UniProt P00884); assay: co-IP; Cos7 cells cotransfected with pFLAG-BHMT and pHA-prey (1:1), lysates 48 h after transfection; anti-HA on protein A Sepharose overnight at 4°C; immunoblot with a mixture of anti-HA and anti-BHMT
T2 sequence: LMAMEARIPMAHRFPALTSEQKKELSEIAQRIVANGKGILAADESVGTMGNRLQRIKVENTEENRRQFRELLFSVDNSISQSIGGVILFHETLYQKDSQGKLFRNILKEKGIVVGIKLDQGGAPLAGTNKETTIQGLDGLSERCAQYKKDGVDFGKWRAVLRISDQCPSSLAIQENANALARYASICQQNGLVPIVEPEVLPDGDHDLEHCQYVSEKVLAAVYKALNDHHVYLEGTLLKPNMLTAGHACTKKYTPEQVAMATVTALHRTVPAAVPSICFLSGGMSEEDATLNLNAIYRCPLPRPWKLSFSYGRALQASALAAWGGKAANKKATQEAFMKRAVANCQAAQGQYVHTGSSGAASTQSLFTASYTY

[4] = biological target: T3, HA-HPD (4-hydroxyphenylpyruvic acid dioxygenase) (rat) (UniProt P32755); assay: as above
T3 sequence: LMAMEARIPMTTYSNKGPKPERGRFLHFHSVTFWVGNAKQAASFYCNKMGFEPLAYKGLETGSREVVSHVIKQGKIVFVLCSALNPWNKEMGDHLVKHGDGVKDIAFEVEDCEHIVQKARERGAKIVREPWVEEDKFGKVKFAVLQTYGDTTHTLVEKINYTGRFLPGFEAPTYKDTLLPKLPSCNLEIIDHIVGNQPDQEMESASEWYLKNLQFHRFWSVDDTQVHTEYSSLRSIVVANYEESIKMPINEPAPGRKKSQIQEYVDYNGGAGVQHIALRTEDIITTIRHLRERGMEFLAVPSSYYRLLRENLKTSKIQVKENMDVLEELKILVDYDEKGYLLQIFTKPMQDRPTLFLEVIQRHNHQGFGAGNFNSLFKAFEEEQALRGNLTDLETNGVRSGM

Molecule: HA-MATα2 (from UniProt P18298 1-395)
binding [1]: binds

B1: BHMT, yeast two-hybrid fusion (pGBKT7-BHMT) (enzyme, UniProt O09171 1-407)
chain: T1 sequence
binding [2]: binds

B2: FLAG-BHMT (enzyme, UniProt O09171 1-407)
chain: T1 sequence
binding [3]: binds
binding [4]: binds

Other lines, results leading:

binding [1]: binds
Molecule: HA-MATα1 (from UniProt P13444 1-397)

binding [1]: no binding
Molecule: HA-HMGB1 (high mobility group protein B1) (from UniProt P63159 1-215)
